Data on 1 molecule can be found in the supplement of paper PMC8728848.

The other results are listed elsewhere or left out.

What all share (experiment): glycan array binding signal (z-score within array); higher = stronger binding
What all share (conditions): glycan notation: IUPAC condensed, linker removed

The target of assay [1] is Neu5Ac(a2-8)Neu5Ac(a2-3)[GalNAc(b1-4)]Gal(b1-4)Glc. The method in brief: (§1)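 The Consortium for Functional Glycomics database supplied 3228 glycan arrays, of which those lacking an available protein sequence were dropped. The binding signal, a within-array Z-score, was averaged across arrays of the same protein sequence and across linkers. Negative scores can be read as non-binding.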

Assay [2] has as its target Neu5Ac(a2-8)Neu5Ac(a2-8)Neu5Ac. In a few lines:
as §1

The target of assay [3] is Neu5Ac(a2-8)Neu5Ac(a2-8)Neu5Ac(a2-3)Gal(b1-4)Glc. The method in brief: as §1
Assay [4] deals with Neu5Ac(a2-8)Neu5Ac(a2-8)Neu5Ac(a2-3)[GalNAc(b1-4)]Gal(b1-4)Glc. The method in brief:
as §1

Assay [5] concerns the target Neu5Ac(a2-8)Neu5Ac(a2-8)Neu5Ac(a2-8)Neu5Ac(a2-3)[GalNAc(b1-4)]Gal(b1-4)Glc. The method in brief:
as §1

Assay [6] addresses Neu5Ac(b1-6)GalNAc. The method in brief:
as §1

The target of assay [7] is Neu5Ac(b2-6)Gal(b1-4)GlcNAc. The method in brief:
as §1

In assay [8] the target is Neu5Ac9Ac(a2-6)Gal(b1-4)GlcNAc. The method in brief:
as §1

Assay [9] has as its target Neu5Gc(a2-3)Gal(b1-3)GlcNAc. The method in brief: as §1
Assay [10] concerns the target Neu5Gc(a2-3)Gal(b1-3)[Fuc(a1-4)]GlcNAc. In a few lines:
as §1

Assay [11] has as its target Neu5Gc(a2-3)Gal(b1-4)Glc. The method in brief:
as §1

In assay [12] the target is Neu5Gc(a2-3)Gal(b1-4)GlcNAc. The method in brief: as §1
Assay [13] concerns the target Neu5Gc(a2-3)Gal(b1-4)[Fuc(a1-3)]GlcNAc. The method in brief: as §1
The target of assay [14] is Neu5Gc(a2-6)Gal(b1-4)GlcNAc. The method in brief: as §1
Assay [15] deals with Neu5Gc(a2-6)GalNAc. The method in brief: as §1

B1: Siglec-H (Mus musculus), Q4QQK7 (protein)
chain: MLLSRLLPLLWVLKWASGNCFILPREVIGTYPSLTLELQSVTVQEGLCVLVPCHLIEYPMNRWSDAAFGYWFHEGENTHPDSLVATNKPYQLVQKEMQSRFHFSGDCSLDIRDAQKGDNGSYFFRLEKGGKTWNFCEERISVHVTDLTHSPNISIPQTLELGRPTNVMCSVPWACERGTPPIFSWMSAALISLGPTTTLSSVLTLTPRLQDHGTNLTCQVTFPGAGVTVQKTIQLNVTYNSQNSTAHVSGRVGPGKPRPLADVVQVAMGEAAIKFLLLGICFFFLSKRSHTKRVERPATHMDQAHAVMD
As for B1, the “glycan array binding signal (z-score)” value in assay [1] was -0.318; in [2] it was -0.254; in assay [3] it was -0.277; in [4], -0.358; in assay [5] it was 1.43; in assay [6] it was 0.697. Besides, the “glycan array binding signal (z-score)” value in assay [7] was -0.378; in [8], 1.42; in assay [9], -0.389; in assay [10], 0.026; in assay [11], -0.282; in assay [12], -0.295. The “glycan array binding signal (z-score)” value was -0.29 in assay [13], 1.11 in [14] and 0.696 in assay [15].
